Data as given in publication PMC4336329 (PLoS ONE, 2015).
About 14,000 (4.5%) of roughly 310,000 compounds showed an effect of 50% or more. Effects have a minus sign here. The list shows a part of the results.

What follows are compounds tested against human ether-à-go-go-related gene (hERG) potassium channel (human, UniProt Q12809) (assay: primary screen, population patch clamp on CHO cells stably expressing hERG).
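Also: peak tail current of the secondary pulse compared with the same well before compound.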

human ether-à-go-go-related gene (hERG) potassium channel, sequence (Q12809 whole entry, looked up): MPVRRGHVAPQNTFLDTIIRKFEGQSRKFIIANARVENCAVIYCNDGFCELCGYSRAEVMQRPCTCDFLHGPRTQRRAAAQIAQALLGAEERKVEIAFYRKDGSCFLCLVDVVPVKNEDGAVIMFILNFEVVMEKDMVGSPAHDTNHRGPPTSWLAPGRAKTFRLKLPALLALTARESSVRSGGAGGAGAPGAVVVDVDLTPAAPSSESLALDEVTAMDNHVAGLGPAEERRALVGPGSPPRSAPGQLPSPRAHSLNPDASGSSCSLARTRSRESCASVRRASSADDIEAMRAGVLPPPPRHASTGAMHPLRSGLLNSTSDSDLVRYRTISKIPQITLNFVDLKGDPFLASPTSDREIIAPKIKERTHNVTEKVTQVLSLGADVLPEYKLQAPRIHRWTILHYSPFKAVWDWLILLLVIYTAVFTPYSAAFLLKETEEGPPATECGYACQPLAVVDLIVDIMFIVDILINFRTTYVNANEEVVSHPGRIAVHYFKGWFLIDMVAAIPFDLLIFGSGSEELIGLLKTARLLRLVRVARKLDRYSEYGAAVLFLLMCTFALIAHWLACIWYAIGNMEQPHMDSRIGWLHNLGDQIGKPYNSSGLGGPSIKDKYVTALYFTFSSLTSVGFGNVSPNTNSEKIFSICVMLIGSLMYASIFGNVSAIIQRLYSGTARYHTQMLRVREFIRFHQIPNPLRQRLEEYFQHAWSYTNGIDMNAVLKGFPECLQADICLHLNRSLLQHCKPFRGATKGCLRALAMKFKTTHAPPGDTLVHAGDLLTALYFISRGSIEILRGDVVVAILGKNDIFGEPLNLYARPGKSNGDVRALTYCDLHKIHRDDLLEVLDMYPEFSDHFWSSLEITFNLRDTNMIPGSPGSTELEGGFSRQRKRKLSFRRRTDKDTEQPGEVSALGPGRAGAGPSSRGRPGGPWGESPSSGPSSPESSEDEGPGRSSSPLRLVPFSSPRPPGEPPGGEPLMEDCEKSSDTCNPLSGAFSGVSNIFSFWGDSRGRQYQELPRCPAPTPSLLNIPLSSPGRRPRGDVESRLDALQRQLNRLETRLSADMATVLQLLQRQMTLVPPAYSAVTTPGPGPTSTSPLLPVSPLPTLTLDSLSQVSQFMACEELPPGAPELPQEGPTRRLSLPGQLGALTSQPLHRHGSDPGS

Row | Compound | hERG current change (%, negative = inhibition) at 10uM [%]
1 | NC12CN3CN(CN(C3)C1)C2.O=C(O)c1cccnc1 | 9.94
2 | COc1ccc(C(=O)Nn2cnnc2)c(OC)c1 | 5.94
3 | COc1ccc(C2=C(C=C(C#N)C#N)C(c3ccccc3C)c3ccccc3O2)cc1OC (stereo not shown) | -0.421
4 | O=C(N/C(=C/c1cccs1)C(=O)N1CCOCC1)c1ccccc1 | 19.2
5 | CC1CN(C(=O)c2ccc(Oc3ccccc3)cc2)CC(C)O1 (stereo not shown) | -5.69
6 | COc1ccccc1NC(=O)C(=O)NCc1ccncc1 | -5.14
7 | CN(Cc1ccccc1)C(=O)c1nc2ccccn2c1CNCCn1cccn1 | -32.3
8 | COc1ccc(-c2cc(C(=O)Nc3ccc(OC)cc3OC)no2)cc1 | 15.5
9 | Cn1c(O)c(C=NCCOc2ccc(Cl)cc2)c(=O)n(C)c1=O | -14.9
10 | CC(=O)Cc1nnn(-c2cc(C)on2)n1 | 36.4
11 | COc1cccc(NC(=O)CCC2CCN(C(=O)c3cncs3)CC2)c1 | -2.75
12 | CN(C)CCC(=O)C(Cc1ccccc1)c1ccccc1.Cl (stereo not shown) | 2.91
13 | Cc1ccc(C)c(NC(=O)c2ccc[n+](Cc3ccc([N+](=O)[O-])cc3)c2)c1.[Br-] | 1.79
14 | Cc1ccc(CNc2ccc3nnc(-c4ccccc4)n3n2)cc1 | 15.7
15 | CCOc1ccccc1CN1CCN(Cc2ccc(C)o2)CC1CCO (stereo not shown) | -37.9
16 | O=C(Cn1cnc([N+](=O)[O-])n1)N/N=C/c1ccc(O)cc1O | 9.88
17 | Cc1ccc[n+](CC(=O)Nc2cccc([N+](=O)[O-])c2)c1.[Cl-] | 14.1
18 | Cc1ccc(S(=O)(=O)Nc2ccc(NC(=O)CN3CCCCC3)cc2)cc1 | -4.54
19 | CN(Cc1ccccc1)C(=O)COc1cc(=O)n(C)c2ccccc12 | -11.1
20 | Cc1c(NC(=O)/C(=C/c2cccs2)NC(=O)c2ccccc2)c(=O)n(-c2ccccc2)n1C | 15.4
21 | COc1ccc(-n2ccnc2CN2CCCC(CO)(Cc3cccc(OC)c3)C2)cc1 (stereo not shown) | -24.2
22 | COC(=O)C1(C)CN(S(=O)(=O)c2ccc(C)cc2)c2cc(OC)ccc2C1=O (stereo not shown) | -16.6

Row | Compound | hERG current change (%, negative = inhibition) at 10uM [%]
23 | Cc1n[nH]c(C)c1S(=O)(=O)N1CCN(c2ccccn2)CC1 | 3.81
24 | COC(=O)c1sc(NC(=O)CCCn2nc([N+](=O)[O-])cc2C)c(C(=O)OC)c1C | -16.3
25 | CC(C)OC(=O)Cn1cnc2ccc(Br)cc2c1=O | -8.98
26 | COCCNC(=O)/C(C#N)=C/c1cccs1 | 9.54
27 | COC(=O)c1ccc(N2CCN(C(=O)c3ccccc3)CC2)c(NC(C)=O)c1 | -39.8
28 | OC(COc1ccccc1)CN1CCCC1 (stereo not shown) | 14.5
29 | CC(C)Oc1ccc(C(CC(=O)O)NC(=O)C2CCCCC2)cc1 (stereo not shown) | 12.5
30 | COc1ccccc1/C=C/[C@@H]1C[C@H]2CN(Cc3cccc(Cl)c3)C(=O)[C@]23CCCN13 | -75.4
31 | Cc1cccc(CCNC(=O)c2cccc(NC3=NC4CS(=O)(=O)CC4S3)c2)c1 (stereo not shown) | 5.32
32 | CC1CCCN(C2=C(NS(=O)(=O)c3ccc(Br)cc3)C(=O)c3ccccc3C2=O)C1 (stereo not shown) | -23.6
33 | Cc1ccc(C(=O)Nc2c(N)nc(SCC(=O)Nc3cc(C)on3)[nH]c2=O)cc1 | 11.8
34 | Cc1ccc(OCC(=O)N(Cc2cccs2)C2CCS(=O)(=O)C2)cc1C (stereo not shown) | 4.21
35 | Cc1sc2nc(SCC(=O)NCc3ccco3)n(-c3ccccc3)c(=O)c2c1C | 8.63
36 | O=C(NCCNC(=O)c1cccnc1)c1ccc(Br)cc1 | 14.6
37 | CCOC(=O)c1c(C)[nH]c(C)c1S(=O)(=O)NCCc1cccs1 | -12.7
38 | O=C(NC1CCCCC1)N1CCCC(CNS(=O)(=O)Cc2ccccc2)C1 (stereo not shown) | -13.7
39 | Cc1cc(C)c(NC(=O)CSc2ccc(-c3cccnc3)nn2)c(C)c1 | 9.79
40 | COCCNC(=O)c1cccc(OC2CCN(Cc3ccccc3OCCO)CC2)c1 | -29.3
41 | O=C(c1cnn2c(C(F)F)cc(-c3ccccc3)nc12)N1CCCc2ccccc21 | -3.45
42 | COC(=O)N/N=C/c1ccc(-c2ccccc2Cl)o1 | -8.41
43 | COc1cccc(N2CC(O)=C(c3ccccc3)C2=N)c1 | 7.71
44 | CN(C)C(=O)NC(O)C(Cl)(Cl)Cl (stereo not shown) | 9.95

Row | Compound | hERG current change (%, negative = inhibition) at 10uM [%]
45 | CCCCNC(=O)c1ccc(-n2c(=S)[nH]c3ccccc3c2=O)cc1 | 20.6
46 | CCN(CC(=O)NCc1ccc(F)cc1)CC(=O)Nc1ccc(S(=O)(=O)N2CCCC2)cc1 | -22.8
47 | Nc1c(C(=O)CCC(=O)O)oc2ccc(Cl)cc12 | -9.4
48 | COc1ccc(NS(=O)(=O)Cc2ccccc2Cl)cn1 | 2.61
49 | O=C(O)c1cccc(CSc2ncccn2)c1 | -2.38
50 | COc1ccc(CCN(C)CCCC(C#N)(c2cc(OC)c(OC)c(OC)c2)C(C)C)cc1OC.Cl (stereo not shown) | -64.1
51 | CCOC(=O)C1CC(c2ccc(Cl)cc2)=NNC1=O (stereo not shown) | -23.1
52 | COc1ccc(CN(C)C(=O)c2ccccc2OCc2c(C)noc2C)cc1OC | -8.98
53 | O=C(c1ccccc1[N+](=O)[O-])N1CCCC(C(=O)N2CCCCCC2)C1 (stereo not shown) | 10.6
54 | CCN(CC)S(=O)(=O)c1ccc(N2CCCC2)c(NS(=O)(=O)c2ccc(OC)cc2)c1 | -13.7
55 | CC(NS(=O)(=O)c1cccc(Cl)c1)C(=O)Nc1ccc(-c2nc3ccccc3s2)cc1 (stereo not shown) | 3.98
56 | CCn1nc(NC(=O)c2ccco2)c2cc3ccc(C)cc3nc21 | 7.22
57 | O=C(NC(=O)N1CCCCCC1)c1ccccc1 | 17.6
58 | COc1cc(NC(=O)C2CCCN2S(=O)(=O)c2cccc3cccnc23)cc(OC)c1OC (stereo not shown) | 16.6
59 | Cc1ccc(SCC2CNc3nc4ccccc4c(=O)n32)c(C)c1 (stereo not shown) | -37.7
60 | CC(C)Cn1c(N)c(C(=O)CSc2cc(Cl)ccc2Cl)c(=O)n(C)c1=O | -6.78
61 | CCCCn1c(N)c(N(CCOC)C(=O)c2cc(-c3ccc(OC)c(OC)c3)nc3ccccc23)c(=O)[nH]c1=O | 11
62 | CCN(CC)C(=O)c1[nH]cnc1C(=O)Nc1cccc(C)c1 | 8.42
63 | NS(=O)(=O)c1ccc(NC(=O)c2c(F)cccc2Cl)cc1 | 14
64 | COC(=O)[C@H](Cc1ccccc1)NC(=O)NCc1cccs1 | 5.07
65 | COc1ccc(N2C(=O)C3CCCN3C2c2ccc(Cl)cc2)cc1 (stereo not shown) | 2.16
66 | CCCCc1ccc(C2C(C#N)=C(N)SC(N)=C2C#N)s1 | 21.4

Row | Compound | hERG current change (%, negative = inhibition) at 10uM [%]
67 | Cc1ccc2oc(Nc3nc(C)cc(C)n3)nc2c1 | -3.47
68 | CC(C)C[C@H](NC(=O)C1CCN(C(=O)[C@H](Cc2ccccc2)NC(=O)OC(C)(C)C)CC1)C(=O)O | 20.5
69 | COC(=O)C1CCN(C(=O)N2CCOCC2)CC1 | 5.68
70 | COc1ccc(C(=O)Cn2nnc(-c3ccc(N4CCOCC4)cc3)n2)cc1OC | -8.3
71 | COC(=O)c1ccc(C23CC4(C2)[C@H](CN(Cc2cccnc2)[C@@H]4c2ccccc2)C3c2ccc(C(F)(F)F)cc2)cc1 (stereo partly shown) | 16.8
72 | COc1ccc(N2CC(C(=O)N[C@@H](CC(C)C)C(=O)NC3CCCC3)CC2=O)cc1 (stereo partly shown) | 18.4
73 | Cc1cccc(-c2noc(-c3cc4ccccc4oc3=O)n2)c1 | -1.31
74 | CCc1ccc2c(c1)cc(CN(C(=S)Nc1ccccc1Cl)C1CC1)c1nnnn12 | -41.4
75 | CC1CCN(c2nc3ccccc3n2CC(=O)c2ccccc2)CC1 | 56
76 | CCOC(=O)N1CCN(C(=O)c2ccc3nc4cc(Cl)ccc4c(=O)n3c2)CC1 | -41.6
77 | CC(NC(=O)C12CC3CC(CC(O)(C3)C1)C2)c1ccc(Cl)cc1Cl (stereo not shown) | 10.8
78 | CCOC(=O)c1ccc(N=Cc2c(O)c3ccccc3oc2=O)cc1 | 16.5
79 | CC(C)(C)SC(=O)CC1NS(=O)(=O)OC2CCCCC12 (stereo not shown) | 3.56
80 | O=C(Cc1ccc(S(=O)(=O)N2CCCC2)s1)Nc1nc2c(s1)CCCC2 | 5.06
81 | COC(=O)c1ccc(CSc2nnc(C)n2N)o1 | 25.3
82 | COC(=O)c1nc(NC(=O)c2ccc(Br)cc2)n[nH]1 | -7.62
83 | CC(C)(C)C1(O)CC(C(F)(F)F)=NN1C(=O)Cc1ccc([N+](=O)[O-])cc1 (stereo not shown) | -8.24
84 | Nc1nc(SCC(=O)N2CCCC2)[nH]c(=O)c1NC(=O)c1ccco1 | -9.62
85 | COc1ccc2oc(C(=O)Nc3ccccn3)c(C)c2c1 | 11.6
86 | O=[N+]([O-])c1cccc(NC(=S)N2CCN(c3ccccn3)CC2)c1 | 0.236
87 | Cc1ccc(C)c(NS(=O)(=O)c2ccc(NC(=O)c3ccco3)cc2)c1 | 4.11
88 | COc1cc(NC(=O)Cn2c(=O)n(-c3cccc(C)c3)c(=O)c3c(C)c(C)sc32)cc(OC)c1 | -8.37
